Article PMC6919601, “Identification of Plasmodium dipeptidyl aminopeptidase allosteric inhibitors by high throughput screening” (PLoS ONE, 2019)
Among all 110,000 compounds or so, about 230 (0.21%) showed an effect of 50% or more. Some of the results follow.

These compounds were tested against DPAP1 (Plasmodium falciparum, UniProt Q8IIJ9) (assay: primary screen, percent inhibition; read by cleavage of a fluorogenic dipeptide substrate; higher = more effect of the substance).
Set-up: species or system P. falciparum D10 trophozoite lysates; single well
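Note: 30 min substrate incubation versus DMSO and 10 µM JCP410 controls.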

DPAP1, sequence (Q8IIJ9 whole entry, looked up): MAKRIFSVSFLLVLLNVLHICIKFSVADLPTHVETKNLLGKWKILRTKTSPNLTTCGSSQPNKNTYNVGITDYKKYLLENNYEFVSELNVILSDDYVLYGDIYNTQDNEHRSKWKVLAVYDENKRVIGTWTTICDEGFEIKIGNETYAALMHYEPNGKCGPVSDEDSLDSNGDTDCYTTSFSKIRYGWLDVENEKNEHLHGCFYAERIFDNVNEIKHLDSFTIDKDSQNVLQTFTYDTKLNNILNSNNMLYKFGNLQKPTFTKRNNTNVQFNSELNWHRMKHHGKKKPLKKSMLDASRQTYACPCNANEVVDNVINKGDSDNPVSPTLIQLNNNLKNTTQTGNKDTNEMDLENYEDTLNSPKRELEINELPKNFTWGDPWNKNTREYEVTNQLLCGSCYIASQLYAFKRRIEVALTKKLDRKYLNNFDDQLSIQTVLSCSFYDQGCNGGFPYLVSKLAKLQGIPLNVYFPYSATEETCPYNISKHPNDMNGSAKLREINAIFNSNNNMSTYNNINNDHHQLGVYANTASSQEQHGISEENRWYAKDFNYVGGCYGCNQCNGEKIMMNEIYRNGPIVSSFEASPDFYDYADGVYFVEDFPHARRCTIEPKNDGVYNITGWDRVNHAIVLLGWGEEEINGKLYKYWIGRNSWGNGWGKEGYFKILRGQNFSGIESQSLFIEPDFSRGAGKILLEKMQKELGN

Compound	% Inhibition @ 10 uM [%]
COC(=O)C1=C(C)N=C2SCCC(=O)N2C1c1ccc(C(C)(C)C)cc1 (stereo not shown)	-7.02
Cc1c(CN2CCc3ccccc3C2)c(=O)n(-c2ccccc2)n1C	-3.8
COc1ccc(C(=O)c2sc3nc4c(cc3c2N)N2CCC4CC2)cc1	-5.17
Cc1nc2c(c(C)nn2C(C)(C)C)c(C)c1CCC(=O)NCCc1c[nH]c2ccccc12	-4.24
CCN(CC)C(=O)c1nc(-c2ccc(Cl)cc2)n2c1CCCCC2	1.9
COc1ccccc1C(=O)N1CCN(c2cccc(C(F)(F)F)c2)CC1	0.163
Cc1ccc2c(=O)cc(C(=O)NC3CCS(=O)(=O)C3)oc2c1C (stereo not shown)	-1.47
CN(CCCNS(=O)(=O)c1ccc2nc(O)ccc2c1)Cc1ccccc1	3.8
COc1ccc2cc(S(=O)(=O)c3ccc(F)cc3)c(=O)oc2c1	2.12
Cc1nc2c3cccnc3nn2c(C)c1CCC(=O)NCC1CCN(Cc2cccc(Cl)c2)CC1	6.22
C=CCN1C(=O)NC(=O)/C(=C\c2ccccc2Cl)C1=O	-7.88
CCN(CC)C(=O)c1sc(NC(=O)COc2ccc(C)cc2C)c(C#N)c1C	-4.65
COc1cccc(-c2csc(/C(C#N)=C/Nc3ccc(C(N)=O)cc3)n2)c1	-1.37
Cc1cccc(CN2C(=O)N/C(=C/c3ccc(C)s3)C2=O)c1	-12.5
Clc1cccc(N2CCN(Cc3ccc(-c4ccccc4)cc3)CC2)c1	-5.41
Cc1c2cnn(CC(=O)N3CCN(Cc4ccccc4)CC3)c(=O)c2c(C)n1Cc1ccccc1	-3.96
Cc1cccc2c1OCc1nc3ccccc3cc1C2=O	4.94
CCOC(=O)N1CCc2c(sc3c2c(=O)n(Cc2ccccc2)c(=O)n3CC(=O)NC(C)CC)C1 (stereo not shown)	3.59
CC(=O)Nc1n[nH]c(-c2ccncc2)n1	-7.39
CC(NC(=O)/C(=C\C=C\c1ccccc1)NC(=O)c1cccc(Br)c1)C(=O)O (stereo not shown)	-2.87
COc1ccccc1N(CC(=O)N1CCC(C)CC1)S(=O)(=O)c1ccccc1	-2.83

Compound	% Inhibition @ 10 uM [%]
Cc1nn2c(O)c3c(nc2c1-c1ccc(Cl)cc1)CCC3	-0.267
O=C(NCCCN1CCc2ccccc2C1)c1cc2c(s1)CS(=O)(=O)C2	-1.85
C#CCOC(=O)CCC(=O)Nc1cccc2ccccc12	-1.8
O=S1(=O)C(/C=N/c2ccccn2)=C(O)c2sccc2N1Cc1cccc(F)c1	4.44
COc1ccc(Cl)cc1/C=C(/C#N)C(=O)Nc1ccc(Cl)cc1	6.81
Cc1oc(-c2cccs2)nc1CSCC(=O)NCCc1ccc(Cl)cc1	-4.71
COc1ccc(-c2cc3c(=O)n(CC(=O)NC4CCCc5ccccc54)ncn3n2)cc1 (stereo not shown)	-3.08
CN1CCC(NC23CC4CC(CC(C4)C2)C3)CC1	3.68
CCN1CC=C(c2c[nH]c3ccccc23)CC1	4.79
COc1ccc(OC)c(C2CC(c3c(O)cc(C)oc3=O)=NCCS2)c1 (stereo not shown)	3.31
COc1ccc(-c2noc(CN(C(=O)/C=C/c3ccccc3)C(C)C)n2)cc1	-4.03
Cc1cc(C)n(-c2ccc3cccc(O)c3n2)n1	1.9
C=CCNC(=O)c1ccccc1NC(=O)CSCc1ccc(C)cc1	-10.2
CN(CCC#N)S(=O)(=O)c1ccc2ncc(C(=O)N(Cc3ccco3)CC3CCCO3)c(O)c2c1 (stereo not shown)	-5.03
Cc1ccc(-c2nc3ccccc3nc2N2CCCCC2)cc1	-2.87
COc1ccc([C@H]2[C@H](C(=O)OC)[C@H](c3ccc(OC)cc3)[C@H]2C(=O)OC)cc1	-3.65
Cc1cccc(-n2cnc3cc(C(=O)NCc4ccc(F)cc4)ccc32)c1	-0.256
COc1ccc2oc3cc(C)nc(-c4ccccc4)c3c2c1	-2.99
CN(Cc1cnn(-c2ccccc2)c1)S(=O)(=O)c1ccc(-c2cc(C(F)(F)F)no2)s1	1.05
CCC1CCCCN1C(=O)c1cc(Cl)ccc1NC(=O)c1ccco1 (stereo not shown)	-3.49
CC(C)C[C@H](NC(=O)OCc1ccccc1)C(=O)N[C@@H](Cc1ccccc1)C(=O)C[N+](=O)[O-]	0.744

Compound	% Inhibition @ 10 uM [%]
CC(NC(=O)C1CCCN(S(=O)(=O)N2CCCCC2)C1)C12CC3CC(CC(C3)C1)C2 (stereo not shown)	0.0525
CC1=C(C(=O)N2C(C)CCCC2C)C2(CCC(C)CC2)OC1=O (stereo not shown)	1.55
Cc1nccn1CCCNC(=O)c1nc(-c2ccc3c(c2)OCO3)no1	2.77
CN(Cc1ccccc1)C(=O)c1cc(S(=O)(=O)N2CCCC2)cn1C	3.36
c1ccc(-c2csc(Cc3c[nH]c4ccccc34)n2)cc1	0.627
COc1cc(OC)c(OC)cc1/C=C/C(=O)c1cc2cccc(OC)c2oc1=O	0.775
CCCOc1ccc(C2C(=O)N(C3CCC(C)CC3)CC(=O)N2Cc2ccco2)cc1OC (stereo not shown)	-2.26
O=S(=O)(NCCc1ccccc1)c1cc(Cl)ccc1Cl	-0.856
N=C(NOS(=O)(=O)c1ccc(Cl)cc1)c1ccncc1	7.86
Cc1cccc2c(C(=O)N3CCOCC3)cc(-c3ccccc3)nc12	1.73
Cc1onc(-c2ccccc2Cl)c1C(=O)Nc1ccccc1C(N)=O	4.84
COc1ccc(OC)c(NC(=O)Cc2ccc(Cl)cc2)c1	-2.19
CCOc1ccccc1NC(=O)C1=C(C)NC(=O)NC1c1ccc(C)cc1 (stereo not shown)	-0.69
CCCCCn1c(=O)c(C(=O)Nc2ccc(C)cn2)c(O)c2ccccc21	4.09
CCOC(=O)c1sc2ncn(CC(=O)NCCCOC)c(=O)c2c1C	-2.87
O=C(NCCc1ccccc1)C1CCN(Cc2cnn(-c3ccccc3)c2-n2cccc2)CC1	-3.08
CC1=NN(c2ccccc2)C(=O)/C1=C\c1ccc(N2CCCCC2)cc1	3.83
CCOC(=O)/C(C#N)=C/c1c(Oc2ccc(C(C)(C)C)cc2)nc2ccccn2c1=O	1.19
O=C(CSc1nc2sc3c(c2c(=O)n1-c1ccccc1)CCC3)NCC1CCCO1 (stereo not shown)	2.01
